US20130164251A1 (JIANGSU T MAB BIOPHARMA, published 2013)
Values belong to the binder of their own block, whether it stands above or below them.

Target: T1, G-CSF receptor G-CSFR (R & D company, Item No. 381GR/CF) (UniProt Q99062 25-621, limits assumed)
T1 construct: Bought reagent, amine-coupled to a CM5 chip; also called the receptor
T1 sequence (looked up): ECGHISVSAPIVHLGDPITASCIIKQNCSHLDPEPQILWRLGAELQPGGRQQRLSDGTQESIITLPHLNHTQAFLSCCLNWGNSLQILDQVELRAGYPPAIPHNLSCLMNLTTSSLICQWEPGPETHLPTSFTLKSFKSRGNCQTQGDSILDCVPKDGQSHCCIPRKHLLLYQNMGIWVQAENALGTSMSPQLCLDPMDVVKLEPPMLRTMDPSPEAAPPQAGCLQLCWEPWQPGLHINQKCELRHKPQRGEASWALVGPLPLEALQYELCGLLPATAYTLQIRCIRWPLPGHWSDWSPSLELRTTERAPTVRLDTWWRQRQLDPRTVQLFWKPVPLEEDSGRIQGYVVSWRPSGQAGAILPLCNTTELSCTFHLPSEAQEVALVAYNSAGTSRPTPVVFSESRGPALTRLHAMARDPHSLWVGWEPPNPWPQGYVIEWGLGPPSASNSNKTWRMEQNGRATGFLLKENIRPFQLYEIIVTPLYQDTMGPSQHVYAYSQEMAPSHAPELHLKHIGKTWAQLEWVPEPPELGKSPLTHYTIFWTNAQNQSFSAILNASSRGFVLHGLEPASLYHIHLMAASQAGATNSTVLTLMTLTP
Test: SPR (Biacore 3000), G-CSFR amine-coupled to CM5 chip, 1:1 Langmuir fit
Procedure: The receptor G-CSFR (R & D company, Item No. 381GR/CF) was coupled to FC₄ cell of a CM5 chip by using an amine coupling method in Biacore® 3000 control software Wizard. HBS-P buffer (10 mM HEPES, 150 mM NaCl, and 0.005% (v/v) surfactant P20, pH 7.4) was used as the working buffer, and 1 mg/mL of G-CSFR was diluted with 10 mM NaAC (pH 4.5) to a final concentration of 20 μg/mL. A 1:1 mixture of 0.2 M EDC and 50 mM NHS was injected by flowing through the surface of the chip at a rate of 10 μL/min, G-CSFR solution was injected, then 1 M ethanolamine (pH 8.5) was injected for 7 min to block the activated chip surface.
rHSA/mG-CSF and G-CSF standards were quantitatively diluted with a HBS-P buffer, and a kinetic test was conducted following a kinetic analysis Wizard in Biacore® 3000 control software. All the samples were injected at the flow rate of 30 μL/min, and the injection time of 3 min. After 5 min of disassociation, 50 mM NaOH, 1 M NaCL, and HBS-P buffer were respectively injected for 15 s and 60 s at a flow rate of 100 μL/min for regeneration. The obtained data was fitted using a 1:1 Langmuir binding model in Biacore 3000 analysis software, to obtain exact kinetic constants: […]

Kd: 1.7 nM
B1: rHSA/G-CSF mutant T1A (ligand)
chain: [not shown - about 600 residues]APLGPASSLPQSFLLKCLEQVRKIQGDGAALQEKLCATYKLCHPEELVLLGHSLGIPWAPLSSCPSQALQLAGCLSQLHSGLFLYQGLLQALEGISPELGPTLDTLQLDVADFATTIWQQMEELGMAPALQPTQGAMPAFASAFQRRAGGVLVASHLQSFLEVSYRVLRHLAQP
notes: expressed in Pichia pastoris

Kd: 2.5 nM
B2: rHSA/G-CSF mutant T116S (ligand)
chain: [not shown - about 600 residues]TPLGPASSLPQSFLLKCLEQVRKIQGDGAALQEKLCATYKLCHPEELVLLGHSLGIPWAPLSSCPSQALQLAGCLSQLHSGLFLYQGLLQALEGISPELGPTLDTLQLDVADFATSIWQQMEELGMAPALQPTQGAMPAFASAFQRRAGGVLVASHLQSFLEVSYRVLRHLAQP
notes: expressed in Pichia pastoris

Kd: 6.7 nM
B3: rHSA/G-CSF mutant T38S (ligand)
chain: [not shown - about 600 residues]TPLGPASSLPQSFLLKCLEQVRKIQGDGAALQEKLCASYKLCHPEELVLLGHSLGIPWAPLSSCPSQALQLAGCLSQLHSGLFLYQGLLQALEGISPELGPTLDTLQLDVADFATTIWQQMEELGMAPALQPTQGAMPAFASAFQRRAGGVLVASHLQSFLEVSYRVLRHLAQP
notes: expressed in Pichia pastoris
